Measured values: the antibiotic and cytotoxicity screens of Wong et al. (2023)
The list shows a part of the results.

Columns and labels:
HSkMC = human skeletal muscle cells; assay: cytotoxicity call (relative viability < 0.9); details: 10 µM
HepG2 = assay: cytotoxicity call (relative viability < 0.9); details: 10 µM
S. aureus RN4220 = assay: growth inhibition call (relative growth <= 0.2); details: 50 µM

Row | SMILES | cytotoxicity call (HSkMC) | cytotoxicity call (HepG2) | growth inhibition call (S. aureus RN4220)
1 | Cc1noc(C)c1NC(=O)N(C)C[C@@H]1OCCCC[C@H](C)Oc2ccc(NS(=O)(=O)c3ccccc3)cc2C(=O)N([C@@H](C)CO)C[C@H]1C | inactive | inactive | inactive
2 | C[C@H](CO)N1C[C@H](C)[C@H](CN(C)Cc2ccc(C(=O)O)cc2)Oc2ccc(NC(=O)CCN3CCOCC3)cc2CC1=O | inactive | inactive | inactive
3 | O=C(O)c1ccc[nH]1 | inactive |  | inactive
4 | O=C(N[C@@H]1CC[C@@H](CC(=O)N2CCOCC2)O[C@@H]1CO)c1ccccn1 | inactive | inactive | inactive
5 | COc1ccc(C#Cc2ccc3c(c2)[C@]2(C(=O)N3)[C@H](c3ccc(OCCO)cc3)N3[C@H](c4ccccc4)[C@H](c4ccccc4)OC(=O)[C@H]3[C@@H]2C(=O)N2CCN(c3ncccn3)CC2)cc1 | inactive |  | inactive
6 | C[C@H](CO)N1C[C@H](C)[C@H](CN(C)C(=O)Nc2ccc(F)cc2)Oc2c(NC(=O)CCCCCC(=O)Nc3ccccc3N)cccc2C1=O | inactive | inactive | inactive
7 | Fc1ccc(CSc2nc3ccccc3[nH]2)c2ccccc12 | inactive | inactive | inactive
8 | C[C@H]1CCCCO[C@H](CN(C)C(=O)C2CCCCC2)[C@@H](C)CN([C@@H](C)CO)C(=O)c2cc(NC(=O)NC3CCCCC3)ccc2O1 | inactive |  | inactive
9 | CC(C)NC(=O)N1C[C@H]2[C@H](C(=O)N(C)Cc3ccccn3)CCS(=O)(=O)[C@H]2C1 | inactive |  | inactive
10 | Cc1ccc(S(=O)(=O)N(C)C[C@H]2OCCCC[C@@H](C)Oc3ccc(NC(=O)Nc4cccc5ccccc45)cc3C(=O)N([C@@H](C)CO)C[C@@H]2C)cc1 | inactive | inactive | inactive
11 | COCC(=O)Nc1ccc2c(c1)C(=O)N(C)[C@H]1CC[C@H](CC(=O)N3CCc4ccccc4C3)O[C@H]1CO2 | inactive | active | inactive
12 | COc1cccc(NC(=O)N[C@H]2C=C[C@H](CC(=O)N3CCN(C)CC3)O[C@@H]2CO)c1 | inactive | inactive | inactive
13 | C[C@H]1CCCCO[C@H](CN(C)Cc2ccncc2)[C@@H](C)CN([C@@H](C)CO)C(=O)c2cc(NC(=O)Nc3ccc4c(c3)OCO4)ccc2O1 | inactive | inactive | inactive
14 | COc1ccc(S(=O)(=O)Nc2ccc3c(c2)C(=O)N([C@@H](C)CO)C[C@@H](C)[C@@H](CN(C)Cc2ccccc2)OCCCC[C@H](C)O3)cc1 | inactive | inactive | inactive
15 | CC(CN1c2ccccc2Sc2ccccc21)N(C)C.Cl (configuration not stated) | inactive | active | inactive
16 | CNC[C@H]1Oc2ccc(NS(=O)(=O)c3cn(C)cn3)cc2C(=O)N([C@@H](C)CO)C[C@H]1C | inactive | inactive | inactive
17 | C[C@@H]1CN([C@H](C)CO)C(=O)c2cccc(NC(=O)NC3CCCCC3)c2O[C@@H]1CN(C)Cc1ccc(C(F)(F)F)cc1 | inactive | active | inactive
18 | COc1ccc(NC(=O)N(C)C[C@H]2Oc3ncc(C#C[C@@H](C)O)cc3C(=O)N([C@H](C)CO)C[C@@H]2C)cc1 | inactive | inactive | inactive
19 | CC(C)NC(=O)Nc1cccc2c1O[C@H](CN(C)S(=O)(=O)c1cn(C)cn1)[C@@H](C)CN([C@H](C)CO)C2=O | inactive | inactive | inactive

Row | SMILES | cytotoxicity call (HSkMC) | cytotoxicity call (HepG2) | growth inhibition call (S. aureus RN4220)
20 | C[C@@H]1CN([C@H](C)CO)C(=O)c2cc(NS(=O)(=O)c3cn(C)cn3)ccc2O[C@H]1CN(C)S(C)(=O)=O | inactive | inactive | inactive
21 | C[C@@H]1CN([C@H](C)CO)C(=O)c2cc(NC(=O)NC3CCCCC3)ccc2O[C@H]1CN(C)Cc1ccc(C(F)(F)F)cc1 | inactive | inactive | inactive
22 | C[C@@H]1CN([C@@H](C)CO)C(=O)c2cccc(NC(=O)C3CCOCC3)c2O[C@H]1CN(C)S(=O)(=O)c1cccs1 | inactive | inactive | inactive
23 | O=C1O[C@H](c2ccccc2)[C@H](c2ccccc2)N2[C@H]1[C@@H](C(=O)O)[C@]1(C(=O)Nc3ccc(Cl)cc31)[C@H]2c1ccc(F)cc1 | inactive | inactive | active
24 | Cc1noc(C)c1S(=O)(=O)Nc1ccc2c(c1)C(=O)N([C@H](C)CO)C[C@H](C)[C@@H](CN(C)Cc1ccc(C(F)(F)F)cc1)OCCCC[C@@H](C)O2 | inactive | inactive | inactive
25 | C[C@@H]1CCCCO[C@H](CN(C)C(=O)CCC(F)(F)F)[C@H](C)CN([C@H](C)CO)C(=O)c2cc(NS(=O)(=O)c3ccccc3)ccc2O1 | inactive | inactive | inactive
26 | C[C@@H]1CN([C@H](C)CO)C(=O)c2cc(NC(=O)CCN3CCOCC3)ccc2O[C@@H]1CN(C)CC1CC1 | inactive | inactive | inactive
27 | COc1ccc([Si](C)(C)[C@H]2[C@H](CC(=O)N3CCC[C@H]3CO)O[C@@]3(C(=O)N(Cc4cccc(N5CCCCC5=O)c4)c4ccccc43)[C@@H]2C)cc1 | inactive | inactive | inactive
28 | Cc1ccc(S(=O)(=O)Nc2ccc3c(c2)CC(=O)N([C@@H](C)CO)C[C@H](C)[C@@H](CN(C)S(C)(=O)=O)O3)cc1 | inactive | inactive | inactive
29 | O=C(C[C@H]1CC[C@H]2[C@@H](COC[C@H](O)CN2S(=O)(=O)c2ccccc2)O1)NCc1ccc(-c2ccccc2)cc1 | inactive | inactive | inactive
30 | Cc1ccc2c(c1)[C@](C)(O)CCS2 | inactive | inactive | inactive
31 | CCc1c(C)[nH]c(=S)c(C#N)c1C | inactive | inactive | inactive
32 | O=C(C1=C[C@@H](c2ccc(C(F)(F)F)cc2)C[C@@H](OCc2ccc(CO)cc2)O1)N1CCCCCCC1 | inactive | inactive | inactive
33 | COc1ccccc1-c1cc(=O)c2c(OC)cccc2o1 | inactive | inactive | inactive
34 | NCC[C@@H](O)c1ccc(Br)cc1 | inactive | inactive | inactive
35 | C[C@@H]1CCCCO[C@@H](CN(C)Cc2ccc3c(c2)OCO3)[C@H](C)CN([C@H](C)CO)C(=O)c2cc(NS(=O)(=O)c3ccccc3)ccc2O1 | inactive | active | inactive
36 | CCS(=O)(=O)Nc1ccc2c(c1)C(=O)N(C)C[C@H](OC)[C@@H](C)CN(Cc1nccs1)[C@@H](C)CO2 | inactive | inactive | inactive
37 | CCCNC(=O)[C@@]1(C)c2ccccc2C(=O)N(Cc2ccc(OC(F)(F)F)cc2)[C@H]1c1ccc(CO)cc1 | inactive | inactive | inactive
38 | C[C@H]1CCCCO[C@H](CN(C)C(=O)Nc2ccc3c(c2)OCO3)[C@@H](C)CN([C@@H](C)CO)C(=O)c2cc(NS(=O)(=O)c3ccc(F)cc3)ccc2O1 | inactive | inactive | inactive

Row | SMILES | cytotoxicity call (HSkMC) | cytotoxicity call (HepG2) | growth inhibition call (S. aureus RN4220)
39 | COc1cccc(C(=O)Nc2ccc3c(c2)C(=O)N(C)[C@H]2CC[C@H](CC(=O)Nc4ccc5c(c4)CCCC5)O[C@@H]2CO3)c1 | inactive | inactive | inactive
40 | C[C@H](CO)N1C[C@H](C)[C@@H](CN(C)S(=O)(=O)c2cn(C)cn2)Oc2ccc(NC(=O)c3ccncc3)cc2CC1=O | inactive | inactive | inactive
41 | C[C@H](CO)N1C[C@H](C)[C@H](CN(C)C(=O)c2ccncc2)Oc2cc(C#Cc3ccncc3)ccc2S1(=O)=O | inactive | active | inactive
42 | C[C@H]1CN([C@@H](C)CO)C(=O)Cc2cc(NS(=O)(=O)c3cn(C)cn3)ccc2O[C@@H]1CN(C)CC1CCCCC1 | inactive | inactive | inactive
43 | C[C@H]1CN([C@@H](C)CO)C(=O)c2cc(NC(=O)C3CC3)ccc2O[C@@H]1CN(C)Cc1ccc(C(=O)O)cc1 | inactive | inactive | inactive
44 | COCC(=O)N(C)C[C@H]1Oc2cc(C#C[C@H](C)O)ccc2S(=O)(=O)N([C@@H](C)CO)C[C@@H]1C | inactive | inactive | inactive
45 | COc1ccc(S(=O)(=O)Nc2ccc3c(c2)C(=O)N([C@@H](C)CO)C[C@H](C)[C@H](CN(C)Cc2ccccc2)OCCCC[C@@H](C)O3)cc1 | inactive | inactive | inactive
46 | C[C@H]1CCCCO[C@@H](CN(C)Cc2ccc3c(c2)OCO3)[C@@H](C)CN([C@@H](C)CO)C(=O)c2cc(NC(=O)Nc3ccccc3)ccc2O1 | inactive | active | inactive
47 | CO[C@H]1CN(C)C(=O)c2cc(NC(=O)Nc3ccccc3)ccc2OC[C@H](C)N(C(=O)CN(C)C)C[C@@H]1C | inactive | inactive | inactive
48 | C[C@H]1CCCCO[C@H](CN(C)Cc2ccc(C(F)(F)F)cc2)[C@@H](C)CN([C@@H](C)CO)C(=O)c2cc(NC(=O)Nc3ccccc3)ccc2O1 | active | active | inactive
49 | C[C@H]1CN([C@@H](C)CO)C(=O)c2cccc(NC(=O)C3CCOCC3)c2O[C@@H]1CN(C)C(=O)NC1CCCCC1 | inactive | inactive | inactive
50 | NC[C@H](O)c1ccc(O)c(O)c1 | inactive | active | inactive
51 | C[C@H]1CN([C@@H](C)CO)C(=O)Cc2cc(NC(=O)Nc3ccc(C(F)(F)F)cc3)ccc2O[C@@H]1CN(C)C(=O)Nc1ccc(F)cc1 | inactive | inactive | inactive
52 | C[C@H](CO)N1C[C@H](C)[C@@H](CN(C)Cc2ccc(-c3ccccc3)cc2)Oc2c(NC(=O)c3ccncc3)cccc2C1=O | inactive | active | inactive
53 | COc1ccc(CNC(=O)C[C@@H]2CC[C@H]3[C@@H](COc4ccc(NC(=O)C5CC5)cc4C(=O)N3C)O2)cc1 | inactive | inactive | inactive
54 | N=C(N)NCCC[C@@H](NC(=O)CC1(CC(=O)N2CCN([C@H]3c4ccccc4NC(=O)c4ccccc43)CC2)CCCC1)C(=O)NCCn1c(=O)n(-c2ccccc2)n(-c2ccccc2)c1=O | inactive | inactive | active
55 | COc1ccc(S(=O)(=O)N(C)C[C@@H]2Oc3ccc(NS(=O)(=O)c4c(C)noc4C)cc3C(=O)N([C@H](C)CO)C[C@H]2C)cc1 | inactive | inactive | inactive
56 | C[C@H](NC(=O)C[C@H]1CC[C@H](NC(=O)CN2CCOCC2)[C@@H](CO)O1)c1ccccc1 | inactive | inactive | inactive
57 | COc1ccc(CN(C)C[C@H]2Oc3c(NC(=O)c4cc(C)nn4C)cccc3C(=O)N([C@@H](C)CO)C[C@@H]2C)cc1 | inactive | inactive | inactive
